Measured values published in PubChem BioAssay AID504333 (National Center for Advancing Translational Sciences (NCATS), 2011).
Among all 360,000 compounds or so, about 16,000 (4.4%) were called active. Inconclusive results, whose numbers are uncertain, are shown with a selection of clear calls. The call rests on the fitted dose curve; in most records, active means well fitted inhibition curve with a large enough effect; inconclusive means small, poorly fitted or top-dose-only effect; inactive means no such curve, though single readings can be large or run the other way. Potencies of inconclusive entries are doubtful fits and often do not repeat.

target: Bromodomain adjacent to zinc finger domain protein 2B (Homo sapiens) (UniProt Q9UIF8); experiment: qHTS Assay for Inhibitors of BAZ2B; settings: AlphaScreen BAZ2B-H3K14Ac peptide displacement; series mostly up to 114 µM; further: nearly all actives have a fitted effect of over 60% in size
Sequence of UniProt Q9UIF8 (Q9UIF8 whole entry, looked up, the tested form may be a part): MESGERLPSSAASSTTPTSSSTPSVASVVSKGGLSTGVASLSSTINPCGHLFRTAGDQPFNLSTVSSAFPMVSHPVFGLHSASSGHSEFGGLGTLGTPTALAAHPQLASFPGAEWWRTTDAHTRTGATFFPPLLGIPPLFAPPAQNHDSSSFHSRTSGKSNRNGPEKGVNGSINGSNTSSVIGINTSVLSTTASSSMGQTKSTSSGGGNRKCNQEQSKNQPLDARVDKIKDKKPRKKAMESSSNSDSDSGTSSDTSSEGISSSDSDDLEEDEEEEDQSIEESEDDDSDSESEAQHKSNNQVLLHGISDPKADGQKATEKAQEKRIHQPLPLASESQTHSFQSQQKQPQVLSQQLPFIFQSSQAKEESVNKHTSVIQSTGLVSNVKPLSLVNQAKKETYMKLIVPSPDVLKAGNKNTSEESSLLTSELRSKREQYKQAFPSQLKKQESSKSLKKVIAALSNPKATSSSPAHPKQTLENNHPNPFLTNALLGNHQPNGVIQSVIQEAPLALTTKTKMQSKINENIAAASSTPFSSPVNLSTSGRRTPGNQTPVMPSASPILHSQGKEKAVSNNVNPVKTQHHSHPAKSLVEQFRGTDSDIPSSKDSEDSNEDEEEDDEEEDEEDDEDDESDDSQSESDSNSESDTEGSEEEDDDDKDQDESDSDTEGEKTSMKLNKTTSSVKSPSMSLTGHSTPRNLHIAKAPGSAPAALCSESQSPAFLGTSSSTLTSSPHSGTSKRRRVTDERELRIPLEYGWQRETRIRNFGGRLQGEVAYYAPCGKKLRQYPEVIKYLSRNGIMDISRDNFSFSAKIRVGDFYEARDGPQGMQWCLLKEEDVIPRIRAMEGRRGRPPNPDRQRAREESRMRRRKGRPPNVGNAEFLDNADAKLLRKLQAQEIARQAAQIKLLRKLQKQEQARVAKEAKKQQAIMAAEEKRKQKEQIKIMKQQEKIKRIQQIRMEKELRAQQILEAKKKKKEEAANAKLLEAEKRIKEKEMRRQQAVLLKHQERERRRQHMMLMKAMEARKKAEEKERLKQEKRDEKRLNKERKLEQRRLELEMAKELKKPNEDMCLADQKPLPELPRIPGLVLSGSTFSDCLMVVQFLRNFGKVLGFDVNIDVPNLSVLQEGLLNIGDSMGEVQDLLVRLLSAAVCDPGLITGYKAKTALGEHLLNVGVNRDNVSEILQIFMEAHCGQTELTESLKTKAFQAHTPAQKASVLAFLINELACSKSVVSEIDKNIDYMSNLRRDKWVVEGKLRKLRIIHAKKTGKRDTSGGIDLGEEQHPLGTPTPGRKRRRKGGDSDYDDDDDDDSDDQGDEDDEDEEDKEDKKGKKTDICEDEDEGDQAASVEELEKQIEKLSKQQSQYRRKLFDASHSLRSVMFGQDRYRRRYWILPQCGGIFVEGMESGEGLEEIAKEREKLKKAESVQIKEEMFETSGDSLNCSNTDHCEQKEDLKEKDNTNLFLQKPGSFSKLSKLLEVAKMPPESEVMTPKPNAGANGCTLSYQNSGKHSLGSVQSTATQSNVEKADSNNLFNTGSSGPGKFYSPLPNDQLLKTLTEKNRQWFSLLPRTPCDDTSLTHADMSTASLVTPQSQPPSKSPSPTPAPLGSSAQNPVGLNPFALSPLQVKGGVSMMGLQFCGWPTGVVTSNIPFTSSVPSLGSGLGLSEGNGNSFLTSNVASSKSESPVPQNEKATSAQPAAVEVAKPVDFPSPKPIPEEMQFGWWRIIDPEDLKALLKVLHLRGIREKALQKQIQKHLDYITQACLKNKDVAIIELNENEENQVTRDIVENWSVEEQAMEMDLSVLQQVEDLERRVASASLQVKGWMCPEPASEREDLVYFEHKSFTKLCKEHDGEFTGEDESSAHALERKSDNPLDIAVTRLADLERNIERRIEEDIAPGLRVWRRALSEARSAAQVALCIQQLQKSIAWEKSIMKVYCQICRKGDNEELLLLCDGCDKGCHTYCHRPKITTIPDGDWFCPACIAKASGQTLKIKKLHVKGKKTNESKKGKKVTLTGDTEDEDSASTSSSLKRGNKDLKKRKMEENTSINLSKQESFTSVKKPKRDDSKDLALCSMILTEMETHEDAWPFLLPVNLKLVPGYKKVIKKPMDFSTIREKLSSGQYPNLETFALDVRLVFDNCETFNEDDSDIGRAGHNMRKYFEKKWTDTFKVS
Summary of the method: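 BAZ2B (50 nM) with biotin-H3(5-23)K14Ac peptide (50 nM) in PBS pH 7.4, 0.01% Tween-20, preformed 30 min, then compound 30 min at room temperature; top concentration 110uM. AlphaScreen streptavidin donor/nickel chelate acceptor beads (10 ug/mL final), 20 min dark, signal read.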
Potency means the concentration at half of the fitted maximal effect; tags describe the fitted curve by direction and shape.

Row | SMILES | Potency
1 | COc1cc(OC)c2ccc(=O)oc2c1C(CC(=O)N1CCN(c2ccccc2)CC1)c1ccc2c(c1)OCO2 (stereo not given) | active: 39.8 µM
2 | CCOc1ccc(C(=O)/C=C/Nc2ccc(S(=O)(=O)Nc3onc(C)c3C)cc2)cc1 | inconclusive: 79.4 µM [inhibitor, single point]
3 | C#CCOCCOCCOCCNc1nc(N2CCN(C(=O)CCCCCCCCCCNC(=O)Cn3cc(CCCCCN)nn3)CC2)nc(N2CCN(C(=O)CCCCCCCCCCNC(=O)[C@@H]([C@H](C)O)n3cc(C)nn3)CC2)n1 | inconclusive: 79.4 µM [inhibitor, single point]
4 | CCOCCCn1c(=N)c(C(=O)NC2CCCC2)cc2c(=O)n3cccc(C)c3nc21 | inactive
5 | Cc1nnc2c3ccccc3nc(N3CCN(c4cccc(Cl)c4)CC3)n12 | inconclusive: 50.1 µM [inhibitor, partial curve]
6 | CCOC(=O)c1cccc(Nc2cc(C)nc(C)n2)c1 | inactive
7 | Cc1ccc(C(C)NC(=O)CSc2ccc(S(=O)(=O)N3CCOCC3)cn2)cc1C (stereo not given) | inactive
8 | CCOC(=O)C1=C(C)N=C2SCCC(=O)N2[C@@H]1c1cccs1 | inconclusive: 79.4 µM [inhibitor, single point]
9 | CCC[n+]1cn(/C(C(=S)Nc2cccc(Cl)c2C)=C(/[O-])c2ccc(OC)c(OC)c2)c2ccccc21 | inconclusive: 39.8 µM [inhibitor, partial curve]
10 | Cc1cccc(NC(=O)C2CCCN(S(=O)(=O)c3cccc4nsnc34)C2)n1 (stereo not given) | inactive
11 | CC(=O)N1CCC(=NNc2ncc(C(F)(F)F)cc2Cl)CC1 | active: 35.5 µM
12 | Cc1c(Cc2ccc3c(c2)OCO3)sc(NC(=O)C2CC2)c1C(N)=O | inactive
13 | O=C(N/N=C/c1c(O)ccc2ccccc12)c1ccc(CO)nc1 | active: 3.16 µM
14 | O=C(Oc1c(CN2CCOCC2)cc(Cl)c2cccnc12)c1ccccc1 | active: 25.1 µM
15 | CCCc1nc2sc3c(SCC(=O)NCc4ccco4)ncnc3c2c2c1CCC2 | active: 28.2 µM
16 | COc1ccccc1OCCNS(=O)(=O)c1ccc2oc3ccccc3c2c1 | inconclusive: 89.1 µM [inhibitor, single point]
17 | CCOC(=O)c1ccc(NC(=O)N2CCN(Cc3cccc(F)c3)CC2)cc1 | inactive
18 | CCCNC(=O)c1ccc2c(=O)c(O)c(-c3ccc(C)cc3)[nH]c2c1 | inactive
19 | O=C(CNC(=O)c1ccncc1)N/N=C/c1ccccn1 | active: 79.4 µM
20 | NCCOc1ccccc1Cc1ccccc1 | inconclusive: 12.6 µM [inhibitor, single point]
21 | Cc1ccccc1NC(=O)Cc1c[nH]c2ccccc12 | inactive
22 | Cc1cc(O)c(C(C)C)cc1N=Cc1ccccc1O | inconclusive: 50.1 µM [inhibitor, partial curve]
23 | CCc1ccc(S(=O)(=O)Nc2ccc(-c3ccc(N4CCCCCC4)nn3)cc2)cc1 | inactive
24 | COc1cc(C(=O)Nc2ccc(S(=O)(=O)Nc3cc(C)nc(C)n3)cc2)cc(OC)c1OC | inconclusive: 79.4 µM [inhibitor, single point]
25 | CCCSCCCNC(=O)CN1C(=O)COc2ccc(S(=O)(=O)N3CCC(C)CC3)cc21 | inactive

Row | SMILES | Potency
26 | CCOC(=O)CNC(=O)C12CC3CC(CC(C3)C1)C2 | inactive
27 | CN1C(=O)Cc2cc(S(=O)(=O)CCC(=O)Nc3ccccc3)ccc21 | inactive
28 | CNc1ccc(Br)cc(C(=O)/C=C/c2cc(OC)ccc2OC)c1=O | active: 28.2 µM
29 | CC1CCN(S(=O)(=O)c2ccc3ncn(CC(=O)N(C)Cc4ccccc4)c(=O)c3c2)CC1 | inactive
30 | COc1ccc(NC(=O)c2ccsc2NC(C)=O)cc1 | inconclusive: 79.4 µM [inhibitor, single point]
31 | S=C(Nc1cccc(Br)c1)N1CCn2cccc2C1c1cccnc1 (stereo not given) | inconclusive: 50.1 µM [inhibitor, partial curve]
32 | Cc1ccc(S(=O)(=O)n2nc(-c3ccco3)nc2SCc2ccccc2)cc1 | inconclusive: 79.4 µM [inhibitor, single point]
33 | O=C(c1ccc(CN2CCc3ccccc3C2)cc1)N1CCN(c2ccccc2)CC1 | inconclusive: 89.1 µM [inhibitor, single point]
34 | COC(=O)Cc1c(C)c2ccc(OC3CCCCC3=O)c(C)c2oc1=O (stereo not given) | inactive
35 | COc1ccccc1CNC(=O)c1ccc2ccccc2n1 | active: 79.4 µM
36 | O=C(CCn1cnc2ccccc2c1=O)NCc1ccccc1 | inconclusive: 79.4 µM [inhibitor, single point]
37 | CCN(CCCNC(=O)C1CCC(=O)N1Cc1ccc(F)cc1)c1cccc(C)c1 (stereo not given) | inconclusive: 70.8 µM [inhibitor, single point]
38 | CCOC(=O)COc1c(OC)cc(Cl)cc1C1NC(=O)NC(C)=C1C(C)=O (stereo not given) | inactive
39 | S=C(NCc1ccc(Cl)cc1)NCc1ccco1 | inactive
40 | CNc1nc(-c2c(C)[nH]c3ccc(OC)cc23)cs1 | active: 50.1 µM
41 | COc1ccc2c(c1)c(/C=N/Nc1ccc(C(=O)O)cc1)c(C)n2C | inconclusive: 50.1 µM [inhibitor, partial curve]
42 | CCN(CC)C(=O)C1CCCN(Cc2cccc(F)c2)C1 (stereo not given) | inconclusive: 89.1 µM [inhibitor, single point]
43 | CC12CC(c3ccccc3O1)N(C(=O)c1ccco1)C(=S)N2c1ccccc1 (stereo not given) | inconclusive: 28.2 µM [inhibitor, single point]
44 | Nc1ccc(Cc2ccc(N)c(O)c2)cc1O | inconclusive: 63.1 µM [inhibitor, partial curve, poor fit]
45 | O=C(Cn1cnc(S(=O)(=O)N2CCCC2)c1)Nc1ccc(OC(F)(F)F)cc1 | inactive
46 | N#C/C(=C/c1ccc(-c2cc(C(=O)O)cc(C(=O)O)c2)o1)c1nc2ccccc2s1 | active: 56.2 µM
47 | Cc1ccc(S(=O)(=O)Nc2ccc(Br)cc2C(NCC(=O)O)c2ccccc2)cc1 (stereo not given) | inactive
48 | COc1ccc2nc(Cl)c(C3CC(c4ccco4)=NN3C(=O)CCCC(=O)O)cc2c1 (stereo not given) | inactive
49 | [N-]=C=C1C(=O)NC(=O)C([n+]2ccc(-c3ccncc3)cc2)C1c1ccccc1C(F)(F)F (stereo not given) | inconclusive: 79.4 µM [inhibitor, single point]
50 | CC(=O)Nc1ccc(S(=O)(=O)NCCC(=O)Nc2cc(C)ccn2)cc1 | inactive

Row | SMILES | Potency
51 | O=c1c2c3c(sc2nc(NCCO)n1-c1ccccc1)CCCC3 | inactive
52 | CC(=O)c1ccc(N2CCC(c3cc(-c4ccc(Cl)cc4)n[nH]3)CC2)c([N+](=O)[O-])c1 | inconclusive: 35.5 µM [inhibitor, partial curve]
53 | CN1C(=O)C(CC(=O)N2CCN(C(c3ccccc3)c3ccccc3)CC2)N(C)C1=O (stereo not given) | inconclusive: 2.82 µM [inhibitor, full curve, poor fit]
54 | COc1ccc(CCn2c(N)c(C(=O)NCc3ccco3)c3nc4ccccc4nc32)cc1 | inactive
55 | Oc1cccc(Nc2c3ccccc3nc3ccccc23)c1 | inconclusive: 50.1 µM [inhibitor, partial curve]
56 | CCn1nc(C)c(/C=C2\CCCC3=C2OC(N)=C(C#N)C3c2c(C)nn(CC)c2C)c1C (stereo not given) | inactive
57 | O=C(COc1ccc([N+](=O)[O-])cc1)NCc1cccnc1 | inactive
58 | O=C(c1ccccc1N1CCOCC1)N1CCCC(Nc2ccc(F)cc2)C1 (stereo not given) | inconclusive: 79.4 µM [inhibitor, single point]
59 | COc1ccc(-c2csc(NC(=O)C3CCCO3)n2)cc1 (stereo not given) | inconclusive: 79.4 µM [inhibitor, single point]
60 | Cc1ccn2c(NC3CCCCC3)c(-c3cccc(-c4cccc(Cl)c4)c3)nc2c1 | inconclusive: 44.7 µM [inhibitor, partial curve]
61 | O=C(N/N=C(\Cc1ncc[nH]1)c1ccccc1)c1ccncc1 | active: 8.91 µM
62 | CN(C)c1ccc(C(=O)c2ccc(N(C)C)c(N)c2)cc1N | active: 50.1 µM
63 | CN(C)c1ccc(CNC(=O)CN(C)S(=O)(=O)c2ccc3c(c2)c(=O)n(C)c(=O)n3C)cc1 | inactive
64 | O=C(/C=C/c1ccco1)NCC1OCCc2ccccc21 (stereo not given) | active: 44.7 µM
65 | O=C(CN1CCCCCC1)Nc1ccc(F)c(F)c1 | active: 50.1 µM
66 | COC(=O)c1ccccc1NC(=S)NC(=O)C1CC1 | inconclusive: 6.31 µM [inhibitor, full curve]
67 | O=C(c1ccc(Br)cc1)c1cc([N+](=O)[O-])ccc1N1CCCCC1 | inconclusive: 39.8 µM [inhibitor, partial curve]
68 | Nc1ccc2c(c1)sc1ccccc12 | inconclusive: 50.1 µM [inhibitor, partial curve]
69 | O=C(c1ccccc1)c1ccc(C(=O)N2CCN(c3ccccc3)CC2)cc1 | inconclusive: 50.1 µM [inhibitor, partial curve]
70 | C=CCNc1nc(-c2ccc(O)c(C(N)=O)c2)cs1 | inconclusive: 89.1 µM [inhibitor, single point]
71 | Cc1ccc(S(=O)(=O)Nc2ccc(S(=O)(=O)Nc3cc(C)nc(C)n3)cc2)cc1 | inconclusive: 89.1 µM [inhibitor, single point]
72 | S=C(c1ccc(-c2ccccc2Cl)o1)N1CCCCC1 | inconclusive: 39.8 µM [inhibitor, full curve]
73 | Cc1cc([N+](=O)[O-])cc(/C=N/n2c(C)nc3ccccc3c2=O)c1O | active: 79.4 µM
74 | O=C(COC(=O)/C=C/c1ccco1)Nc1ccccc1 | inconclusive: 50.1 µM [inhibitor, partial curve]
75 | COc1cccc(C(=O)CC(=O)C(=O)Nc2cc(Cl)c(OC)cc2OC)c1 | inconclusive: 79.4 µM [inhibitor, partial curve]
